Results reported in patent US20160271188A1, “PROBIOTIC AND PREBIOTIC COMPOSITIONS, AND METHODS OF USE THEREOF FOR TREATMENT OF GASTROINTESTINAL DISORDERS” (Epiva Biosciences, Inc., priority 2014, published 2016).

Tested on: C57BL/6 mice
Conditions: mouse, in vivo

In the case of `CCN1CCN(c2cc3c(cc2F)c(=O)c(C(=O)O)cn3C2CC2)CC1` [enrofloxacin, reference compound], the “serum endotoxin levels after antibiotic treatment, later time” value is reported as “return to baseline by day 14”.
